This passage reports binding signal (log2 normalized intensity) results from paper PMC10726135.

Some of the results follow. At the low end of the ranking, values are background and their order means little. The protein was read in a cell extract, so binding may be indirect.

The target in the assay is T1, HNF4alpha8 (COS-7 nuclear extract) (UniProt P41235-5).
T1 sequence: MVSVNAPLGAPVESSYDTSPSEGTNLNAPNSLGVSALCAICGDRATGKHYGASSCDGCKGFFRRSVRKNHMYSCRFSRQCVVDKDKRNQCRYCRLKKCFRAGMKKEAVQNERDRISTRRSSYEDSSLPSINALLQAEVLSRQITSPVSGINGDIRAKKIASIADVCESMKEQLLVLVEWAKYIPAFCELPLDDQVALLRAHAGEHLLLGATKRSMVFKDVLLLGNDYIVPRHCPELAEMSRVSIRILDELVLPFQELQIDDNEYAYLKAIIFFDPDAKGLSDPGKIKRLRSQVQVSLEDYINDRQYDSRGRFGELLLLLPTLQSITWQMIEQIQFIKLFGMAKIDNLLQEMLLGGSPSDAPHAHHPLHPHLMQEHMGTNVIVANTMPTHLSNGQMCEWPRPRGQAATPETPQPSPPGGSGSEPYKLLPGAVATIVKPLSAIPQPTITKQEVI
The assay can be described thus: protein-binding microarray. As to conditions: COS-7 nuclear extract on double-stranded Agilent 4x180k PBM; binding buffer, salt, pH and temperature not given; high values mean tight binding; double strand, one strand shown; sequences stand for … in …GCCTAGGGAGATTAGAGTATCGGTCGA
On to AGAGACAACCAAGGTTGCAGAGTGTCCCAC, for which the binding signal (log2 normalized intensity) was -0.934.
For TTACAAAGTATGTTCACAAGGAATTGGAAT, the binding signal (log2 normalized intensity) is 1.46.
Regarding GGAGAGGCAAGTATGGTAAGGTCGACCTTT, the binding signal (log2 normalized intensity) is 7.03.
The figure for TTTCCCCCTATTTCCCTCTGTGCCCGAGCT is 4.05; for TTGTAGTGTCATTGTTATTTACGGTGGGCA it is 2.11; for GAGGTTGAATTCCAAAGGTTATTTTCTTTA it is 3.54.
With AGAGGACTTCCAAAGCCCCTTTCCACTCTA the figure was 0.748; with TGACTTTCTTCCTATGGGATCAAAGTGCGA, 5.69; with TACAGGGAGCTATTCTTTAACCAGAGTCTA, -0.822.
As for CCATCCCAGGTCCACAGTGCACATTCCAGA, the binding signal (log2 normalized intensity) was 0.945.
Turning to CTGACAAGTATCTCGGTCAAACCTTTGACC, the binding signal (log2 normalized intensity) worked out at 6.35.
The figure for GCTCCCGCCTGACCTGGCCCCTGAGGGTGC is 1.61; for TAGCCAGACCTGTTCCTCTGCCCCTCATCG it is 1.81.
For the sequence AGATAATCCCCAGCCACGCTCCTCTTATCA, the binding signal (log2 normalized intensity) is 0.137.
For GCCTGCTCCTTGGAAGTCGCCGTGAGGTTA, the binding signal (log2 normalized intensity) was 0.487.
Turning to TCAGATTGTAGCCTCATTTCACCTTTGGTC, the binding signal (log2 normalized intensity) came out at 6.43.
With GACTCTGCAGCCGAACCGGCACGGTTTCGT the figure was -1.28; with GTGTGGGACTTGAGGTCTTATCTTTAGGCC, 0.638; with TCCACTGTGCAGTGGGCCTTTAGAAGTGTA, 0.172.
Turning to CTCTTTGGTGCAAAGGTCAGGACAAGGCTC, the binding signal (log2 normalized intensity) stood at 4.73.
With CCCTGCAGTCCTCTGCTTATCTGGCCTGCT the figure was -1.35.
The figure for AACTGGAAAATCAAAGACTCAGATGAGTTT is -1.32; for GGAATCTTGCCCTGTCGCCCAGGCTGGAAT it is 1.58; for TTCAATGCTCCAGTAAAAGCTCTACCTGAC it is -1.28.
With AGACAGCTGCATTTGTCCGGGTATGTTCTT the figure was 1.67; with GTGTTGGAGCATTAGTTGACCATTGTGTTA, 2.2.
ATGACCTTTGAGCAATAGGAAATGGGAGGG: the binding signal (log2 normalized intensity) worked out at 3.35.
With GGTCTAATTCCCAAGGGTATGTTTGTGATA the figure was 1.52.
Turning to GTCCCTGCTCCACGCAAACACAAAAGGATC, the binding signal (log2 normalized intensity) is -1.45.
For the sequence TCAGAGCCTGGCTGGCCTGGCAAATCTCTA, the binding signal (log2 normalized intensity) was -1.16.
With TTTTTAGTGCAAGCAAAATTCCTGGGTTGC the figure was -1; with AAGCTGCAATGGCTTCACAATTCCTAGCAA, -1.25.
The figure for GAGAGTTAGTTCTGCAAACACCCCTCCCCC is 5.44; for CTGCCAGGAGGGGACTTCAAAGGCTCCCCT it is -1.3; for GTTTGCTAATATCTGATGTTAAATCCACGA it is 0.0853.
With TTCTGGTGATCAAACAAAAGGGACAAAGGT the figure was 1.51.
AACCAAGATTTACATCCTATCCTGGCTTCA: the binding signal (log2 normalized intensity) was -1.1.
Regarding TGGACATACCTCTAATCATAAAGCTGGGAA, the binding signal (log2 normalized intensity) is -0.0247.
The figure for TTAGATAGTAGCCCTTTGTATCTTTTAAGA is 0.942; for ACACACACATTGCAGTATGCCCCCCCACCC it is 6.27; for ACTGTTCAGTTCCTATTTCAACATCCTCTC it is -0.717.
The figure for CAGGAGAAGCAGAACAGGTATTTCAAGGTT is -0.868; for AATTGTGTCACTCCCCAGGAATGTGCTCCC it is 2.54.
On to GCAGTGAGTAACCTTGAGGAACTGAGTAAG, for which the binding signal (log2 normalized intensity) is -1.43.
The figure for TGGTATGCTTAAGTGGCTCACCCAAGTCAC is -1.28; for TACTGACCAAATGGGAACATTCCTCAGGGA it is -1.31; for CAGTCTAAAGTCTGATCCCAATTTATCTTT it is 2.01.
For CATCCTCAGGTAAAGATCAACCATCAAGAT, the binding signal (log2 normalized intensity) was -1.32.
With CCAGTGGGGGGAAGCTCTGTCACTTCTGGT the figure was -0.841.
For the sequence AAGCATTGCTTGAGTCACTTGGTTTTCACA, the binding signal (log2 normalized intensity) is -0.851.
The figure for TCATTGATGAGTGACCTTTGACCTCAGAGA is 10.5; for CCCTTGACAATTCCTATTCATTCCCTAAGA it is -0.967; for GAAGTGCTGACCTTTGGTCTAAACCTACTT it is 5.99.
With GGTTCACTCTATGTTAGGCTGGAAAACTGG the figure was 0.592; with ATCAGACACAGAGATAAGGAGGTAACCTTT, 3.93.
Take TATGGGATGATCAGTAAGGAGAGGGGGCGG: the binding signal (log2 normalized intensity) was -1.3.
For TAAAGGGCAGCAAGTATTCAAGAAAGGGGC, the binding signal (log2 normalized intensity) is -1.32.
The figure for CTGTGTTCTCTCAACCTCTCTGGGGGATGG is 0.317; for TCTCTGGCTTGATCCCTGAACTTTGCTCCC it is 8.76.
With TTCTCTCTTGGACTCTTGGACTCCCTGAAG the figure was 5.73; with TAACTGTGGGTTCTAGGTAATCACCCTCTC, 0.507; with GTTTGGTGTTTAATTTTCAACCTCTTTCTC, 1.49.
The figure for GATTAGAGACCTCTAGACTCCAGCTAAAGC is -1.41; for CATTCCAACCCTGCCATAAACTTCTCCCCC it is 4.21; for GAGCACAAATAACATTCCTAACATTCTTCC it is -1.32.
In the case of TCCGGCAGCGGCCGGAAAAAGTGAGGAGCA, the binding signal (log2 normalized intensity) was -1.04.
The figure for GGCTGAGTCAGTTTAGTCCTGGATGACCCA is 3.33; for CATGTGGTCCTAAGACTAACCTTTGACCAT it is 8.37; for CATGACCTTTGGACTGTGACCCCACCTCTC it is 7.69.
With GGGGACCAGTGGGGGGAAGCTCTGTCACTT the figure was -1.35; with CCCAAGCGAATATGTCAGGCTCAGGGACCC, -1.2; with GGAAGATGCCTTTTTAGTGCAAGCAAAATT, -0.831.
The figure for GGACTTTGGCCTTACTTGGCCTGTTTGCTG is 5.89.
